Source: PMC12627862, “Therapeutic targeting of endothelial calcium signaling accelerates the resolution of lung injury” (Signal Transduction and Targeted Therapy, 2025)
Starred links: 1 amine or outer side, 2 acyl side, 3 side chain; linkers in the order of their positions; H or OH if unused. Positions of bridges follow the written chain, without caps; N, C: chain ends. Non-standard residues stand in square brackets, D forms with d. Residues, ends and D or L forms follow the SMILES beside them. ξ: configuration not given here. X2 = C[C@@](CCCCC=[*:3])(N[*:1])C(=O)[*:2]; Oic = O=C(O)[C@@H]1C[C@@H]2CCCC[C@@H]2N1; GABOB(3R) = O=C(C[C@@H](O)CN[*:1])[*:2]; d(tBuAla) = CC(C)(C)C[C@@H](N)C(=O)O; dVal(3-OH) = CC(C)(O)[C@@H](N)C(=O)O; tBuAla = CC(C)(C)C[C@H](N)C(=O)O; ξVal(3-OH) = CC(C)(O)C(N)C(=O)O; R5 = C=CCCC[C@@](C)(N)C(=O)O; X1 = O=C(CC(O)CN[*:1])[*:2]; 4Amb = NCc1ccc(C(=O)O)cc1

Assays:
[1] = tested on: calcium release from ER stores in primary HLMVECs; test: Cytosolic calcium measurements (Fluo-4), α-thrombin-induced release; conditions: read-out: IC50, calcium release from ER stores; Fluo-4, primary HLMVECs, 50 nM α-thrombin, nominal calcium-free environment; n = 3 independent experiments
[2] = tested on: CD1 mice, cecal ligation and puncture; test: Polymicrobial sepsis model (CLP); assay type: in vivo, mouse; conditions: FOXM1ΔiEC mice, CLP 18-gauge, 24 hours, 2 µmol/kg bw
[3] = tested on: mouse alveolar type 2 (AT2) epithelial cells; test: AT2 cell calcium imaging assay; conditions: primary mouse AT2 cells, 1 hour exposure, 100 µM ATP, Fluo-4

Structure (SMILES)	IC50 [1] [µM]	vascular leakage (EBA extravasation) [2]	amplitude of ATP-stimulated Ca2+ release [3]
CC(C)(C)C[C@@H]1NC(=O)[C@](C)(NC(=O)c2ccc(CNC(=O)[C@H](N)C(C)(C)O)cc2)CCC/C=C\CCCC[C@@](C)(C(=O)N[C@H](CC(C)(C)C)C(=O)O)NC(=O)CC(O)CNC(=O)[C@@H]2C[C@@H]3CCCC[C@@H]3N2C1=O (stereo partly drawn) [compound 108, (2R)-2-((8S,18R,21S,23aS,27aS,28aS,Z)-18-(4-(((R)-2-amino-3-hydroxy-3-methylbutanamido)methyl)benzamido)-4-hydroxy-8,18-dimethyl-21-neopentyl-1,6,19,22-tetraoxo-1,2,3,4,5,6,7,8,9,10,11,12,15,16,17,18,19,20,21,22,23a,24,25,26,27,27a,28,28a-octacosahydro-[1,4,7,12]tetraazacyclotetracosino[4,5-a]indole-8-carboxamido)-4,4-dimethylpentanoic acid] (H-[dVal(3-OH)][4Amb][R5][tBuAla][Oic][X1][X2][d(tBuAla)]-OH; staple (Z) 3-7)	0.1297 ± 0.00033	–	–
CC(C)(C)C[C@@H]1NC(=O)C[C@@H](O)CNC(=O)[C@@H]2C[C@@H]3CCCC[C@@H]3N2C(=O)[C@H](CC(C)(C)C)NC(=O)c2ccc(cc2)CNC(=O)C(C(C)(C)O)NC(=O)[C@@H](Cc2ccccc2)NC1=O (stereo partly drawn) [compound 109, (1^2S,1^3aS,1^7aS,3S,10S,13R,16S,20R)-13-benzyl-20-hydroxy-10-(2-hydroxypropan-2-yl)-3,16-dineopentyl-1^2,1^3,1^3a,1^4,1^5,1^6,1^7,1^7a-octahydro-1^1H-4,8,11,14,17,22-hexaaza-1(1,2)-indola-6(1,4)-benzenacyclotricosaphane-2,5,9,12,15,18,23-heptaone.] (cyclo([4Amb][tBuAla][Oic][GABOB(3R)][tBuAla][dF][ξVal(3-OH)]))	0.1098 ± 0.00026	did not reduce vascular leakage	no effect
